The assay deals with SKH1-Elite mice. Conditions: mouse, in vivo.

Experimental findings from patent US20210290921A1 (priority 2017, published 2021) are described below.

B1: ovalbumin (protein, UniProt P01012 2-386, looked up)
Ovalbumin: GSIGAASMEFCFDVFKELKVHHANENIFYCPIAIMSALAMVYLGAKDSTRTQINKVVRFDKLPGFGDSIEAQCGTSVNVHSSLRDILNQITKPNDVYSFSLASRLYAEERYPILPEYLQCVKELYRGGLEPINFQTAADQARELINSWVESQTNGIIRNVLQPSSVDSQTAMVLVNAIVFKGLWEKAFKDEDTQAMPFRVTEQESKPVQMMYQIGLFRVASMASEKMKILELPFASGTMSMLVLLPDEVSGLEQLESIINFEKLTEWTSSNVMEERKIKVYLPRMKMEEKYNLTSVLMAMGITDVFSSSANLSGISSAESLKISQAVHAAHAEINEAGREVVGSAEAGVDAASVSEEFRADHPFLFCIKHIATNAVLFFGRCVSP
notes: a commonly studied model antigen; endotoxin-free OVA (EndoFit, Invivogen)
Consider B1, for which the “peak OVA-specific IgG titer” value is recorded as 12±4 log 2.
